The target in assay [1] is T1, SHC adaptor protein 3 (SHC3) (human (endogenous in U-87 MG)) (UniProt Q92529).
T1 sequence: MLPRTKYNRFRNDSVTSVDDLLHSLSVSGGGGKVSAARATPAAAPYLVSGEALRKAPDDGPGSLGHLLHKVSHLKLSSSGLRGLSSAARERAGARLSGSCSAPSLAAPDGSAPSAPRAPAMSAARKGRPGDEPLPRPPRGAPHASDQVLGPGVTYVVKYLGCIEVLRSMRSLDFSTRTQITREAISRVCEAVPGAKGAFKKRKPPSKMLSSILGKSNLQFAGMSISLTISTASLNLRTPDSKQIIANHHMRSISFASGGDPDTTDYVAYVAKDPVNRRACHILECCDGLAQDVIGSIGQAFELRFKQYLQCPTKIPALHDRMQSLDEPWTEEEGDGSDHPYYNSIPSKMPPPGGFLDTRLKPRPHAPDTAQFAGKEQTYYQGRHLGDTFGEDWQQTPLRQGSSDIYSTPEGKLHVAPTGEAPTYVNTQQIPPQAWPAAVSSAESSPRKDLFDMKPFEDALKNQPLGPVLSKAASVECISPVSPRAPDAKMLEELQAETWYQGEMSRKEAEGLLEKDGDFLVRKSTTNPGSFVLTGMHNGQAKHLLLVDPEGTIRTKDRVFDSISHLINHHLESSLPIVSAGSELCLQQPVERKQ
The assay is described as follows: co-IP; anti-SHC3 monoclonal antibody on micromagnetic beads, RIPA lysate of U-87 MG, 5 h at 4 °C; Western blot with specific antibodies; negative control antibody against tetanus toxin. (Immunoblotting shows a protein as a band on a membrane.)

By UniProt entry, the sequences of proteins in these tests, tags left out.
UniProt Q9NSY1: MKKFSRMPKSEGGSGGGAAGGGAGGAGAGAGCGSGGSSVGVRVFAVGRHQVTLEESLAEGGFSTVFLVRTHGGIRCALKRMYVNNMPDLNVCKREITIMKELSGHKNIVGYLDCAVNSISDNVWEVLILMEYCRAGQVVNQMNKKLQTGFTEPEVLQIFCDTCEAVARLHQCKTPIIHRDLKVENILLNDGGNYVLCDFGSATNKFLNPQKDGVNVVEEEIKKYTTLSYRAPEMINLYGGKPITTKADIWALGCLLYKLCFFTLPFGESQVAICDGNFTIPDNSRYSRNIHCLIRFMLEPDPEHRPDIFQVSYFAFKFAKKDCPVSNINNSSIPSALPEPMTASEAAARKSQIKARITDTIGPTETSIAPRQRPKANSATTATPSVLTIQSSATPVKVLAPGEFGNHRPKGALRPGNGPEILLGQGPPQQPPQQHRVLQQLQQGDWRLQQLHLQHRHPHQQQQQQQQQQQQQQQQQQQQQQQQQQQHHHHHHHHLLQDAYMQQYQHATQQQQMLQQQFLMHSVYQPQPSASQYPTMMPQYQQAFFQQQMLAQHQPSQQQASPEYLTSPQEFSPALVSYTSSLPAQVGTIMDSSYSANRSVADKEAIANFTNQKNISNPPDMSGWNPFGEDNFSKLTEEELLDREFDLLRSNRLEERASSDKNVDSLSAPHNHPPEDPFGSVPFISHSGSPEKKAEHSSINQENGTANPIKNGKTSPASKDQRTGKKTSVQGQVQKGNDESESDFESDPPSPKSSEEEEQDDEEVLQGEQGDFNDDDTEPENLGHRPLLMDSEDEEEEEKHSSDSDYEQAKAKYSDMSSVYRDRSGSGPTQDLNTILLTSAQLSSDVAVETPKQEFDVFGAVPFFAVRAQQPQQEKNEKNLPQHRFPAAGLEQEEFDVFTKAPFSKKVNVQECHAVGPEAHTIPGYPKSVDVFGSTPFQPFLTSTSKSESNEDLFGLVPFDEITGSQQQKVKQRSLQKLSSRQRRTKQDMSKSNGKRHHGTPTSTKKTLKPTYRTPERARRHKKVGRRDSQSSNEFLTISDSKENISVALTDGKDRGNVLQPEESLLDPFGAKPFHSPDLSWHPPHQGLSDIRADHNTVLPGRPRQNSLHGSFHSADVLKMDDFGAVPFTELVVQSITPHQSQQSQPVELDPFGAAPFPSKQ
UniProt P78559: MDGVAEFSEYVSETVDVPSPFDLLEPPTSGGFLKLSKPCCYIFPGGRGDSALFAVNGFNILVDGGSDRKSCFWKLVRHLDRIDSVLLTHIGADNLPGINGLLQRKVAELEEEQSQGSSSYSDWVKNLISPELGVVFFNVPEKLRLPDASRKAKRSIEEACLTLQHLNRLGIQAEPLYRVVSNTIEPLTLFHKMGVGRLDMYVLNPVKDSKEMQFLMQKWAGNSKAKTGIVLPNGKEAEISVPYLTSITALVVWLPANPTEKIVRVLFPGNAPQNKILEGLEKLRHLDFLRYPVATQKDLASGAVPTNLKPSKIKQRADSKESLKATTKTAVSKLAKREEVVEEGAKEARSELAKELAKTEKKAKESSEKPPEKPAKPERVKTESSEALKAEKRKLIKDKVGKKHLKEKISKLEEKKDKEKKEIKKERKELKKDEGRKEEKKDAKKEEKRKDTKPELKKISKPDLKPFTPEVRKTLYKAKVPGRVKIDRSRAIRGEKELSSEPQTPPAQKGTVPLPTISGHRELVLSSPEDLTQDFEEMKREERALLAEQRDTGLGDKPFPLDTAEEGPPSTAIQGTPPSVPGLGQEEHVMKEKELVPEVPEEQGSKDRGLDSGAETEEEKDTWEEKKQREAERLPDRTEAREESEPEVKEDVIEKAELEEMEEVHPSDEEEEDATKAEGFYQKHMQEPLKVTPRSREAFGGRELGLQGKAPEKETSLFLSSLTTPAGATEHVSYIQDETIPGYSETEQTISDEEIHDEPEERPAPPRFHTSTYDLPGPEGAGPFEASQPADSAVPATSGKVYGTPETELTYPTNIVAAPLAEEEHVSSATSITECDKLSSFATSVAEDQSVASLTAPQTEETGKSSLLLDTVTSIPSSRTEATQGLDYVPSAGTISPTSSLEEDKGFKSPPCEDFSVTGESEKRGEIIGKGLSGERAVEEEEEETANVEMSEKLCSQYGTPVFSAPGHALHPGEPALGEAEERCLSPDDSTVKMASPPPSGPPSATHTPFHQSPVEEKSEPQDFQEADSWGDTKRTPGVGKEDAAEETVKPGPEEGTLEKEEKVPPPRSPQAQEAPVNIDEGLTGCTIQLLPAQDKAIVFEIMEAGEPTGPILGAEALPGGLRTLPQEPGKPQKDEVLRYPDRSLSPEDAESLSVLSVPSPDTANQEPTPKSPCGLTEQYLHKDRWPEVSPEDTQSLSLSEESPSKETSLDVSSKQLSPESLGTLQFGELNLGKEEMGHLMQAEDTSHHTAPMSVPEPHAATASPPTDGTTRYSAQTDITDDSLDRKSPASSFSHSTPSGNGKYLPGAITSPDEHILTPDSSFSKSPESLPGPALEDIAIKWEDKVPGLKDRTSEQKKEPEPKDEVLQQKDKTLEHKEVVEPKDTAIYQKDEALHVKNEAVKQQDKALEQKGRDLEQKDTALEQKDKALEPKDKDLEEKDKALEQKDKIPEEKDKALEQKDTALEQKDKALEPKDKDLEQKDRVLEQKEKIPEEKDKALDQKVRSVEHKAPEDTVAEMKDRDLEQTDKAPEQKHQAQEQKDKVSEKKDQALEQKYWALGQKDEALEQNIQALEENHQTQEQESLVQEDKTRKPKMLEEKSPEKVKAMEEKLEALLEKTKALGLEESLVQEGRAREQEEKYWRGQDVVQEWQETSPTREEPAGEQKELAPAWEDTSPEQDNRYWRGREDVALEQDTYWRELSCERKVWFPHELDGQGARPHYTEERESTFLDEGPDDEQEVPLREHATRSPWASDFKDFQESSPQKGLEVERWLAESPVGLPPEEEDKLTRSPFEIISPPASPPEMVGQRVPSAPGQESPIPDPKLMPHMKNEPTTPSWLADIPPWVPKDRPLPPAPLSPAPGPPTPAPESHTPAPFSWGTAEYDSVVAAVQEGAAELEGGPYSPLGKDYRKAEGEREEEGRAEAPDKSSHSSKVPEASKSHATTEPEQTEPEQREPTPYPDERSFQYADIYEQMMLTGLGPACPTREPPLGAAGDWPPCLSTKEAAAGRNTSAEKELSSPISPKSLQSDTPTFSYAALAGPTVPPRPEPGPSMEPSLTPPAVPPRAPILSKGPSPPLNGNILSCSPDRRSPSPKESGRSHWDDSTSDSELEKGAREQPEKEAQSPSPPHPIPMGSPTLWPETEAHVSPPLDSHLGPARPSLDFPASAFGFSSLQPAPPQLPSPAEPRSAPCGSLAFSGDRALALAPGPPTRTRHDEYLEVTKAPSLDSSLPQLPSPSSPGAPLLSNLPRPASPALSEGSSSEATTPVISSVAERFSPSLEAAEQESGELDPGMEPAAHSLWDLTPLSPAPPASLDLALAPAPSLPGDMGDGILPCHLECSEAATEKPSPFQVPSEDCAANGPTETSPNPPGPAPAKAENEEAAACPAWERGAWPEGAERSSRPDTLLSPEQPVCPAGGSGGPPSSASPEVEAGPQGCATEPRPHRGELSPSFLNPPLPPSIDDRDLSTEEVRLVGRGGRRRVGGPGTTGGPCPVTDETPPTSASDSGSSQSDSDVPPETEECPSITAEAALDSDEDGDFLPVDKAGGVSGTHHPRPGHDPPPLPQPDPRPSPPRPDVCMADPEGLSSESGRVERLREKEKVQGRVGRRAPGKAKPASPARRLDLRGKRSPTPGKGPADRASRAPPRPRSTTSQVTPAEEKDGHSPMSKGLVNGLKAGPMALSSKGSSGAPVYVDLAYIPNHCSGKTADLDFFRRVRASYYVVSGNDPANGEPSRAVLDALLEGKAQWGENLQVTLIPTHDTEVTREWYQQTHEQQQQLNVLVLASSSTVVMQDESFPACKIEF
UniProt P09874: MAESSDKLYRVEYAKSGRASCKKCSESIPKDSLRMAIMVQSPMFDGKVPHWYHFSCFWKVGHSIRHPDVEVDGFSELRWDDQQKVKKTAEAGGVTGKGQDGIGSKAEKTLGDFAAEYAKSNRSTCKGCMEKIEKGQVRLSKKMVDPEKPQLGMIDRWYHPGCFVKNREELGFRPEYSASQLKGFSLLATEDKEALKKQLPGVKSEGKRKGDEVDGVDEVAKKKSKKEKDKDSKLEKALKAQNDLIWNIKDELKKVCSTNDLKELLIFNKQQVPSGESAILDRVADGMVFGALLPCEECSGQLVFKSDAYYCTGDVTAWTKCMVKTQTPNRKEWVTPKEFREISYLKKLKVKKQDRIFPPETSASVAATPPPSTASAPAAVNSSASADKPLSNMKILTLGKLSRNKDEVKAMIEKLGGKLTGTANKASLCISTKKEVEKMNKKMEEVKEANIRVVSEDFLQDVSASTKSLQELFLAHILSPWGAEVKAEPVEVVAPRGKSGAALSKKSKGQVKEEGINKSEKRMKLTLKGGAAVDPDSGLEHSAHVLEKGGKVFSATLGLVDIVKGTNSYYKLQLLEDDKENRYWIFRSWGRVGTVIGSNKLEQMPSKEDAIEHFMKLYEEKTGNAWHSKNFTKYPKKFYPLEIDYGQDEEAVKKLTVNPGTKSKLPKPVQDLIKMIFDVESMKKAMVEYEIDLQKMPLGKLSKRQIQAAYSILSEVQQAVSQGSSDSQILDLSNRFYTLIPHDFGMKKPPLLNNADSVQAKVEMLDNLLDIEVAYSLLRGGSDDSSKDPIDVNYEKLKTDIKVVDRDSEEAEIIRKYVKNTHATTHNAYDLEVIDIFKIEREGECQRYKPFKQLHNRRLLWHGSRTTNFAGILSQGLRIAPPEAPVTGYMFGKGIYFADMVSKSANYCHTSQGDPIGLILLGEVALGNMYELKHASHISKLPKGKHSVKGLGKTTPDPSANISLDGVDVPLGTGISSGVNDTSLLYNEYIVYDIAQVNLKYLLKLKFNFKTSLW
UniProt P08670: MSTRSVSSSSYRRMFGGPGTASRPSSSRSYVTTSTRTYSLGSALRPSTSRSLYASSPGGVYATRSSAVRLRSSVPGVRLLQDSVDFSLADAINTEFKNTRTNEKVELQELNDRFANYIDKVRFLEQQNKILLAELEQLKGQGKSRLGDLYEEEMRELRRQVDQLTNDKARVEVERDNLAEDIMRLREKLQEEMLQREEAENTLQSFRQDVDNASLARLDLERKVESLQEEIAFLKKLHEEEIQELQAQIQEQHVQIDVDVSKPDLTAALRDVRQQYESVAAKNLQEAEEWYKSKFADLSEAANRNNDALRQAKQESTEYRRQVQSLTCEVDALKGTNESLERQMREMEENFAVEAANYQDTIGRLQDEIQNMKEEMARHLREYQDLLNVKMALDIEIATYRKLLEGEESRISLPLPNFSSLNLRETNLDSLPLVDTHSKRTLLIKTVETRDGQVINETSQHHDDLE

The target of assay [2] is T2, SH2-eCFP fusion protein (human) (UniProt Q92529).
T2 sequence: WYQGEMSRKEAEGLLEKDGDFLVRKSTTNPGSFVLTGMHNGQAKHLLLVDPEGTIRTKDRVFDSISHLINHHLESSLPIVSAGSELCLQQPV
Kind of assay: co-IP; anti-eCFP monoclonal antibody (μMACS GFP Isolation Kit) on lysates of U-87 MG transiently transfected with SHC3 domain-eCFP constructs; Western blot for PARP1.

The target of assay [3] is T3, p52SHC3 fused to GST expressed in Escherichia coli (human) (UniProt Q92529).
T3 sequence: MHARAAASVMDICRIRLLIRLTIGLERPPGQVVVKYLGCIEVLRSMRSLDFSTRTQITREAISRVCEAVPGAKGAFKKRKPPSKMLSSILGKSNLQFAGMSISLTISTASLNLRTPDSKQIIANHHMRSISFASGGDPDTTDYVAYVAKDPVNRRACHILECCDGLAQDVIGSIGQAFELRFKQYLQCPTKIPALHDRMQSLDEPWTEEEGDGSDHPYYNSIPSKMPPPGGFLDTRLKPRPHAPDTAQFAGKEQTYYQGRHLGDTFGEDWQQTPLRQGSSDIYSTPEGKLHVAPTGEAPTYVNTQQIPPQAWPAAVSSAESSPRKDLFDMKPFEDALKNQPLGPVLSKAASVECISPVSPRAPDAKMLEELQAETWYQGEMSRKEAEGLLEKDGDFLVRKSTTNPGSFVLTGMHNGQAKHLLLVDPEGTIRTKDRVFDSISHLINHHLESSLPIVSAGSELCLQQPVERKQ
The assay is described as follows: pull-down; p52SHC3 fused to GST, expressed in E. coli, on a column; U-87 MG whole cell extracts; only the target purified.

No constants are given. Whether binding was seen depends on the method and setting. In cells and extracts the contact can be indirect. Some results given as binding are weak or reduced against the parent protein; the word gives no strength. For some assays here: Sequences can lack the tags named with a protein.

For “BMP-2-inducible protein kinase (BMP2K) (from UniProt Q9NSY1 1-1161)”, the binding entry in assay [1] was “binds”.

Consider “microtubule associated protein 1A (MAP1A) (from UniProt P78559 1-2803)”, for which the binding entry in assay [1] is on record as “binds”.

“poly ADP-ribose polymerase 1 (PARP1) (from UniProt P09874 1-1014)”: in assay [2], the binding result was “no binding”.

On to vimentin (from UniProt P08670 1-466), for which the binding entry in assay [3] and in assay [1] was “binds” each time.

The record behind these values is PMC7290719.
